Measurements: the BET-seq Pho4 binding data (Le et al. 2018)
The other results are listed elsewhere or left out. Values were computed here from the reads of four pooled replicates and scatter widely.

target: T1, Pho4 (S. cerevisiae) (UniProt P07270); test: relative binding free energy (BET-seq); higher = weaker binding; details: reference: library average
T1 sequence: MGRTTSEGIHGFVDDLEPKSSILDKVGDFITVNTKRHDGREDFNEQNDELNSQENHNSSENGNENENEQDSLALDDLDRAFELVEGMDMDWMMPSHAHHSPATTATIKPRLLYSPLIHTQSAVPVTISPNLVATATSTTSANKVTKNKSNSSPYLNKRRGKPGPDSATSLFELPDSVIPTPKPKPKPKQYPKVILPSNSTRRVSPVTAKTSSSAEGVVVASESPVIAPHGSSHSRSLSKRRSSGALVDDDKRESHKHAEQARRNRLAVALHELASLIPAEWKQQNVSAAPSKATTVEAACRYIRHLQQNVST

| Sequence | relative binding free energy [kcal/mol] |
| --- | --- |
| TCTTACACGTGTAATG | 0.24 |
| CGGGGCACGTGGTTTA | -0.04 |
| GGAGTCACGTGATTTA | 0.32 |
| TTAGCCACGTGGGGTT | -0.17 |
| TTGGGCACGTGCAATT | -0.11 |
| TTGGTCACGTGCGCTT | 0.04 |
| TAACTCACGTGGGATA | 0.26 |
| TCGGTCACGTGCTTGG | 0.14 |
| TTCGTCACGTGCGGTG | 0.03 |
| ACGGGCACGTGGTAGC | -0.12 |
| GGTGGCACGTGCCGCG | -0.27 |
| ATAGTCACGTGCGGAT | 0.03 |
| TACAACACGTGAGGGT | 0.25 |
| CGTCGCACGTGTAGGG | -0.11 |
| TGGTGCACGTGAATTA | 0.38 |
| TTCTGCACGTGTGGGT | 0.06 |
| GGGTTCACGTGTACAT | 0.18 |
| TCAGTCACGTGGAGTT | 0 |
| GCGGACACGTGGGTGG | -0.1 |
| GTGATCACGTGTGGCT | 0.17 |
| GACGTCACGTGGAGAT | 0.21 |
| TGGGGCACGTGTTGCG | 0.04 |
| CGGGACACGTGGGGTC | -0.13 |

| Sequence | relative binding free energy [kcal/mol] |
| --- | --- |
| TCATACACGTGTGTTG | -0.06 |
| CGCTGCACGTGAGTGG | 0.05 |
| GGGGCCACGTGCCGGG | -0.31 |
| ACGTTCACGTGGTTAT | 0.26 |
| ATGACCACGTGTTGGT | -0.14 |
| TATTGCACGTGCTGAG | -0.12 |
| GTGGACACGTGGGAGC | -0.11 |
| AGTTCCACGTGGTCGG | 0 |
| AAGAGCACGTGTTTTG | -0.07 |
| GGGGACACGTGGCGAT | -0.08 |
| TTATTCACGTGGTTAC | 0.17 |
| GTTAGCACGTGGGTGT | -0.11 |
| GAGTGCACGTGAGCGT | 0.19 |
| ATGTGCACGTGGGATA | -0.13 |
| CATGGCACGTGTCGTG | -0.15 |
| CGTCGCACGTGAAGGG | 0.18 |
| GCGGACACGTGGGGAT | 0 |
| GATTTCACGTGGATTG | 0.31 |
| TATCACACGTGGGTAT | -0.01 |
| TGATGCACGTGTATAG | 0.05 |
| TTGGGCACGTGATGTC | 0.01 |
| TGTTACACGTGGTGGC | 0.16 |
| GGCGGCACGTGTGGTC | 0.12 |

| Sequence | relative binding free energy [kcal/mol] |
| --- | --- |
| TGGGGCACGTGTCGTT | -0.04 |
| TATGCCACGTGGGTGG | -0.25 |
| GTGGACACGTGCGTTG | -0.02 |
| GGTTCCACGTGGAGGT | 0.08 |
| AGCGTCACGTGTGGCG | 0.1 |
| AAACGCACGTGGTTGG | -0.21 |
| GGACTCACGTGGGCGT | 0.01 |
| GGTCACACGTGTAGTG | 0.13 |
| GTAGTCACGTGTATAG | 0.12 |
| GGCGACACGTGGTTGT | 0.02 |
| ACGTTCACGTGTTGCA | 0.33 |
| TGCGTCACGTGTTCTG | 0.11 |
| GTTGACACGTGGACGT | 0.05 |
| ATAGGCACGTGTGACG | -0.03 |
| GTATGCACGTGAGTGC | 0.2 |
| AATTACACGTGGTATG | -0.01 |
| CTGGACACGTGGGTCG | -0.22 |
| TGAGTCACGTGGGTCA | -0.11 |
| CGATTCACGTGGGTGT | 0.17 |
| TCGTGCACGTGTAGAG | 0.09 |
| AAGTACACGTGTGTCT | 0.13 |
| TTGTTCACGTGAAGTT | 0.42 |
| TTTTCCACGTGTTGGA | 0.11 |

| Sequence | relative binding free energy [kcal/mol] |
| --- | --- |
| GGGGGCACGTGGAATA | -0.04 |
| GTCAGCACGTGAGAGG | 0.26 |
| ATAGTCACGTGGTAAA | -0.02 |
| GCGCGCACGTGGGGAT | -0.11 |
| CGGGCCACGTGAGGTT | 0.24 |
| AAGTGCACGTGTATTA | -0.02 |
| TGTCGCACGTGGTGTA | 0.01 |
| CTTCACACGTGGTGGG | 0.06 |
| TTTCGCACGTGTGTGT | -0.11 |
| GTATGCACGTGCGGGG | -0.09 |
| TTGGTCACGTGCGTTG | 0.14 |
| TTTGTCACGTGTCGAT | 0.08 |
| AGTCTCACGTGGTAGT | 0.15 |
| GGTTTCACGTGAAATT | 0.39 |
| AGTCGCACGTGATTGG | 0.08 |
| ATGAACACGTGGTAGG | -0.11 |
| TGGTCCACGTGGAGTG | -0.06 |
| CAGGTCACGTGGTGGT | 0.04 |
| TTTCGCACGTGTATTG | -0.11 |
| AGTACCACGTGGTAGT | -0.23 |
| TATTACACGTGGTGAT | 0.04 |
| TCTGGCACGTGTTGGC | -0.04 |
| TCGTGCACGTGAAGAG | 0.35 |

| Sequence | relative binding free energy [kcal/mol] |
| --- | --- |
| TGTGTCACGTGATTTT | 0.24 |
| TTAAACACGTGTTCGT | -0.09 |
| GCTCGCACGTGGTATG | -0.07 |
| TGATCCACGTGTGATG | 0 |
| GTTCGCACGTGTGCGC | 0.15 |
| GTTGACACGTGTCGTT | -0.09 |
| CGCGGCACGTGGGGGT | -0.21 |
| CCGGACACGTGTGGGG | 0.07 |
| GGTTTCACGTGATTTA | 0.4 |
| TTCATCACGTGTGTGT | 0.03 |
| TTTAACACGTGAGAGG | 0.32 |
| CGGTGCACGTGGTGAC | -0.13 |
| CGGTACACGTGCGGGG | -0.05 |
| TTTCTCACGTGAGTTA | 0.37 |
| TTTTTCACGTGCTCTT | 0.38 |
| TGTTGCACGTGGTGCA | -0.14 |
| GGTGGCACGTGAGAAG | 0.21 |
| GTTTGCACGTGCTGGA | 0.02 |
| GTCGTCACGTGCAGGG | 0 |
| AAAAGCACGTGTGTGA | -0.01 |
| TTACTCACGTGTTTAA | 0.24 |
| GAAGGCACGTGGTGAT | -0.16 |
| CTGTTCACGTGCAGTT | 0.23 |
